The list shows a part of the results.
T1: UNK ZnF1-3 (human, UniProt Q9C0B0 31-174)
T1 sequence: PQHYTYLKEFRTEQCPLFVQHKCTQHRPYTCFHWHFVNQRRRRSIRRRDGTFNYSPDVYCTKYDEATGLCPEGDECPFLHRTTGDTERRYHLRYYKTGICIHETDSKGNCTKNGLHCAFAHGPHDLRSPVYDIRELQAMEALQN

B1: chr14:21343309:21343310:-_ENSMUSG00000021816_ENSMUST00000161445|mus_mus|FALSE|FALSE (ssRNA)
RNA: GGGAGUUCUACAGUCCGACGAUCAGGAUCAGACCAUAGCAAGUCACACAUUGGUCCAAAUGCAGGUGGCUCUUUAAAUCUAUCUAAUCUCCUAAUAUCAUCCAGUGUGUGUAUUUCUGGUGAAAGUCCACCAUGAACACAAAGCAACAGAGGAUUGAGCAUCA
B2: chr7:54823571:54823572:-_ENSG00000132432_ENST00000352861|hu_mus|hu_hu_hu_mus_False|1_48 (ssRNA)
RNA: GGGAGUUCUACAGUCCGACGAUCUCCCAUGAUAGCAAAUCCUAUAGCUGUAGCCAUGGCAAUCUUCUGGAAUUCUUUUCUGUCGGGUUUAGUGCAUCUUUUAACCAGCCGAAUUGAGUCCUUUACAAACUGCCGGCUUGGCUCCAACAGAGGAUUGAGCAUCA
B3: chr7:102952668:102952669:+_ENSG00000105819_ENST00000453466|hu_hu|motif|central (ssRNA)
RNA: GGGAGUUCUACAGUCCGACGAUCCUGUUUAAAAUCUGGUAGUUGCUUAAUGGGACCAACAGCAGCAAUAGCUGGACUCCGGUUAUAAAUGUAUUUGGUACAUACUUCUCGAAUUGUCUCAGCAUUCACAGCAUCAAUUCUUGCCAACAGAGGAUUGAGCAUCA
B4: 14029214_14029334_1494_CDS_ENSG00000175595_ENST00000311895|human|control|control (ssRNA)
RNA: GGGAGUUCUACAGUCCGACGAUCACGAUAUCCUUCCUCGACAUCUCCUUCCUCUUCCAGUUCUUCAGGUUUUCCUACCAUUUGAGUUAAGGUCAACUUCCGUUUUUUCUUUUUGAGGGUUCUUUCUUUGGUAGAAGCCCGUUCCAACAGAGGAUUGAGCAUCA
B5: chr16:94651144:94651145:+_ENSMUSG00000040785_ENSMUST00000117648|mus_hu|mus_mus_mus_hu_True|18_18 (ssRNA)
RNA: GGGAGUUCUACAGUCCGACGAUCAUUUUCUUGAAUCAAGUGGCGAAUAACAUAGUCCACUGCUUCAUUUAGAAAAUUUCUGCUAGAAAAACAGGUUGUAUAGUCUUCUGUGCUCAAAACCUUCCAAGAAAGCAAUUCUUUGAGCAACAGAGGAUUGAGCAUCA
B6: chr1:59924863:59924864:+_ENSMUSG00000067336_ENSMUST00000087435|mus_mus|FALSE|FALSE (ssRNA)
RNA: GGGAGUUCUACAGUCCGACGAUCGUUGCCAAAUUUUAGCCGGGGUUCUUUUGUUGAAUUUUUGGUGUUCAAAGGCAAACUAGUAGGUCUCUUAGGAAGGUUCUGUUGCUUAGGGAGAGGAUAGAUCUGAGCAGGUGGAACAUCCAACAGAGGAUUGAGCAUCA
B7: chr4:115894766:115894767:+_ENSMUSG00000028698_ENSMUST00000030464|mus_hu|mus_mus_mus_hu_True|48_88 (ssRNA)
RNA: GGGAGUUCUACAGUCCGACGAUCUUCCACACGGAAAUGUACUUCGGGUUUCCAACGGGCCAGUACCAGUCCGGCCAAACUACCCGAUGAGGACAAGCCCCCUCUCUCCUACAGAACACAACAAAAUGCCCCCGAACUUUCAAGCAACAGAGGAUUGAGCAUCA
B8: chr19:59067291:59067292:-_ENSG00000130725_ENST00000253023|hu_hu|motif|central (ssRNA)
RNA: GGGAGUUCUACAGUCCGACGAUCUGGGUCGGGGGAGGCAGCGCCGACCUUAAUCACAUGGUGUUAAAAAAAAAAAAAUAACGGGGGGCACGUGGCAGGAAGGGGAGGCAAGGCCAAGGCAGGGGAUUCCCCCACCGGCCGCCCCAACAGAGGAUUGAGCAUCA
B9: chr6:40426449:40426450:+_ENSMUSG00000029911_ENSMUST00000121360|perfect_dup|motif|central (ssRNA)
RNA: GGGAGUUCUACAGUCCGACGAUCAACGUCACCCAUUUGGUAUACUUCACUAUCCCCUGAUCGCCACAUCUCAUUUGUUGCGGGAGAAAAUAUUGUGACUGGGUUUUUUCCUUCCACCUGUCUCAUGACAGGGUCCUGACCUACCAACAGAGGAUUGAGCAUCA
B10: chr2:153237265:153237266:-_ENSMUSG00000061411_ENSMUST00000109784|mus_mus|mus_mus_mus_hu_False|58_98 (ssRNA)
RNA: GGGAGUUCUACAGUCCGACGAUCAAAAAAAAAAAAAGAAAAGUGUCCUUGUGCCCAAAGUCUCAGGUGCUUGGAGUGCAGCUAGAAACAGCUCUUUUGGAUCCCACCUCUUUCAAAAACAAAAUGUACCAACUGGUGAGGCAGCAACAGAGGAUUGAGCAUCA
B11: chr2:130640030:130640031:-_ENSMUSG00000027309_ENSMUST00000044766|mus_mus|FALSE|FALSE (ssRNA)
RNA: GGGAGUUCUACAGUCCGACGAUCAUAGCGGUAGUUGACGGGAUUACAGUACAGAUGGACACUAUCUGAUUUAAUCAAUAAAAUCACGUCAUCUAGAAUUUCUUCAGAAAAUCCCGUUUUCUCAAAAUCAGUGGCAUUCUGACUCAACAGAGGAUUGAGCAUCA
B12: chr7:141450121:141450122:+_ENSG00000106028_ENST00000265304|hu_mus|hu_hu_hu_mus_True|28_38 (ssRNA)
RNA: GGGAGUUCUACAGUCCGACGAUCUCAUCCGUUCUAUGCCUUUUCUUUUGUCUGGUCACUCAGAAAUAUAAUGUUAUCAGCUAUGAUUGUUGUUGCUUGUCGCCUCACAUUAUUUUUAUCCAUGUACUCGCCAUAGUCCACUUUCAACAGAGGAUUGAGCAUCA
B13: chr2:198351390:198351391:-_ENSG00000144381_ENST00000345042|hu_hu|hu_hu_hu_mus_False|28_68 (ssRNA)
RNA: GGGAGUUCUACAGUCCGACGAUCUCAUUCCCACCCUCCACAGAAAGGCUGCUUCUGAACUCUCAUGGUGGUGGCAAGCGCUACAGUCCUGAUGCUCACAGAACAGUAGUAAAAAUGCAGUGAUUUAAGUUGAAAGCAGGACACCAACAGAGGAUUGAGCAUCA
B14: chr3:10015032:10015033:+_ENSMUSG00000027533_ENSMUST00000029046|mus_mus|mus_mus_mus_hu_True|1_108 (ssRNA)
RNA: GGGAGUUCUACAGUCCGACGAUCGUUGUUGCCAUCACAAGUGAUGAUACAAUCUGGCUUGGCCAUUGCGCCCAUUUUUCGCAAAGCUAUUCCCACUCCUAGCUCCUUCAUGUAUUCAUCAAAGCCUUUGCUGUCCAUCAGGCGCAACAGAGGAUUGAGCAUCA

Target: T1, UNK ZnF1-3
Experiment: nsRBNS (natural sequence RNA bind-n-seq); RBNS binding buffer (assumed for nsRBNS): 25 mM Tris pH 7.5, 150 mM KCl, 3 mM MgCl2, 0.01% Triton X-100, 500 ug/ml BSA, 20 U/ml SUPERase-In, 4 C; UNK is unkempt and MSI1 is Musashi-1; names of the RNAs are library labels; protein concentration not given here; high values mean tight binding

| Binder | binding signal [enrichment R] |
| --- | --- |
| B1 | 0.811 |
| B2 | 0.673 |
| B3 | 1.15 |
| B4 | 0.307 |
| B5 | 0.512 |
| B6 | 1.55 |
| B7 | 1.17 |
| B8 | 3.02 |
| B9 | 0.941 |
| B10 | 3.23 |
| B11 | 0.589 |
| B12 | 0.403 |
| B13 | 1.46 |
| B14 | 0.733 |

Reference: publication PMC12136788
